Over roughly 110,000 compounds, “z-score” has its median near -0.1; the highest 2% begin near 2. The list shows a part of the results.

The target in this assay is Metabotropic glutamate receptor 8 (Rattus norvegicus) (UniProt P70579). Briefly: mGluR8 Gi/Go-coupled signaling modulation – cell-based, rat, thallium flux, HTS, primary screen (AID 488969). The conditions noted are these: HEK293 rat mGluR8, GIRK (G protein-gated inwardly rectifying potassium channel) thallium flux, FluoZin2; at 10 µM; stronger effect = higher value; submaximal glutamate (EC20) added with thallium.
Chain of UniProt P70579 (P70579 whole entry, looked up): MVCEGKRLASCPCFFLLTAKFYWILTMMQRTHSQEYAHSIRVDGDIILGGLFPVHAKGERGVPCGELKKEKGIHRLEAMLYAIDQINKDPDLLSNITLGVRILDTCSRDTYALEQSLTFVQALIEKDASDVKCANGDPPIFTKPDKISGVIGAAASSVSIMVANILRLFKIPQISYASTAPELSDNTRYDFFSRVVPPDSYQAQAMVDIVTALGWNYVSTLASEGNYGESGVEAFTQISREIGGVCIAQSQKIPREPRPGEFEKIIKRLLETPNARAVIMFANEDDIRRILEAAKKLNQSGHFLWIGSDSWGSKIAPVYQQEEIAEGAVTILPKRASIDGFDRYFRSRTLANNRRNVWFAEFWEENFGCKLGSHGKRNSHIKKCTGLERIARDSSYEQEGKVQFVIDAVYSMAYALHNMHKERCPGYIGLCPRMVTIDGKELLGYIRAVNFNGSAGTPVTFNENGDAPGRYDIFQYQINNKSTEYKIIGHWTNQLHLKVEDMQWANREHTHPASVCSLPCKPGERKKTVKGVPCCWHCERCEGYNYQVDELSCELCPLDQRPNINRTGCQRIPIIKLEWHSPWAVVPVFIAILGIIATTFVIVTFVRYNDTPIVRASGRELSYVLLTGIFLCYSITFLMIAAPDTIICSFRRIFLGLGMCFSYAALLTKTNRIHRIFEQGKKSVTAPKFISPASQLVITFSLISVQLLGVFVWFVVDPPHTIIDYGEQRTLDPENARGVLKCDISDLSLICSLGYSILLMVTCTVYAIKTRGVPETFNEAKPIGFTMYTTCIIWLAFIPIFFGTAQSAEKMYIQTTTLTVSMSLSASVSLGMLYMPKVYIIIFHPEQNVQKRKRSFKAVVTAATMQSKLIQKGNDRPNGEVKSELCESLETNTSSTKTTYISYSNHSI
For the compound `CCN(CC)c1ccc(N=Cc2ccc([N+](=O)[O-])o2)cc1`, the z-score was -0.614.

For the compound `O=C(C1CCCN(Cc2ccncc2)C1)N1CCc2ccccc2C1` (stereo not drawn), the z-score was -0.287.

With `CCC(C)(C)n1nnnc1C(c1cc2ccc(OC)cc2[nH]c1=O)N1CCCCC1` (stereo not drawn), the z-score is -1.09.

Turning to `Cc1cccc(Sc2c([N+](=O)[O-])ncn2C)c1`, the z-score was -0.369.

The compound `O=C(CNC(=O)c1ccccc1)OC(C(=O)Nc1cc(C(F)(F)F)ccc1Cl)c1ccccc1` (stereo not drawn) registered a z-score of 0.333.

As to `CCCCSc1nc(C)[nH]c1[N+](=O)[O-]`, the z-score was -0.0317.

`COc1ccc2[nH]c(=O)c(CNc3ccc(C)c(C)c3)cc2c1`: the z-score is -0.0534.

Regarding `COc1ccc(CNC(=O)C2CCCN(c3nccc(C)n3)C2)cc1` (stereo not drawn), the z-score was -0.338.

The compound `Cc1cccc(N2C(=O)C3C(c4ccccc4)OC4(C(=O)c5ccccc5C4=O)C3C2=O)c1` (stereo not drawn) registered a z-score of 0.181.

Regarding `COC(=O)c1cc2ccccc2c(-c2c(O)ccc3ccccc23)c1O`, the z-score came to 0.0387.

In the case of `Cc1cc(C(=O)CSc2nc3ccc(Cl)cc3[nH]2)c(C)n1CC1CCCO1` (stereo not drawn), the z-score was -0.188.

For `CC(=O)c1ccc(OCC(=O)c2ccc(-c3ccccc3)cc2)cc1`, the z-score is -0.162.

On to `COc1ccc2cc(C(=O)NCc3ccco3)c(=O)oc2c1`, for which the z-score was -0.0395.

`O=C(O)c1ccc(-n2c(-c3ccc(Br)cc3)n[nH]c2=S)cc1` had a z-score of 0.033.

The compound `CCSc1nnc(-c2ccccc2NC(C)=O)c(=O)[nH]1` displayed a z-score of 0.739.

With `CCOC(=O)c1sc(NC(=O)c2cccc(S(=O)(=O)N(CC)CC)c2)cc1C`, the z-score is -0.214.

For `O=C(COC(=O)C1=COCCO1)Nc1ccc2c(c1)OCO2`, the z-score was -0.363.

Turning to `Cc1ccc(SCC(=O)Nc2cccnc2)cc1`, the z-score was -0.145.

The compound `CC1(C)CC(=O)C(CCC(=O)c2ccccc2)C(C)(C)N1` (stereo not drawn) displayed a z-score of 0.26.

For the compound `Fc1ccc(-c2cc3nc4c(c(N5CCOCC5)n3n2)CCCC4)cc1`, the z-score is -0.0496.

As for `CCC(C)NC(=O)c1c(F)c(F)c(F)c(F)c1F` (stereo not drawn), the z-score is -0.172.

For `O=C(CNS(=O)(=O)c1ccccc1)OCC(=O)c1cccc([N+](=O)[O-])c1`, the z-score is -0.0665.

On to `Cc1oc(-c2ccccc2)nc1CS(=O)CC(=O)N1CCc2ccccc2C1` (stereo not drawn), for which the z-score was -0.164.

For `CCCCNC(=S)N(Cc1ccco1)Cc1cc2cc3c(cc2[nH]c1=O)OCCO3`, the z-score is -0.301.

Consider `CCn1c(SCC(=O)N/N=C/C=C\c2ccccc2[N+](=O)[O-])nnc1-c1ccccc1`, for which the z-score was -0.239.

Compound `CCc1ccc(/C=C2\SC(=S)N(CCCC(=O)Nc3nccs3)C2=O)cc1` yielded a z-score of 0.0464.

For the compound `Cc1nc2ccccc2n1CC(=O)NCc1ccccc1`, the z-score worked out at 0.413.

For the compound `CCC(C)c1ccc(-c2cc(C(=O)OCC(=O)Nc3cc(C)on3)c3ccccc3n2)cc1` (stereo not drawn), the z-score is 0.436.

With `CC(C)=CC(=O)Nc1ccc(Br)cc1`, the z-score was -0.047.

For the compound `COc1ccc(S(N)(=O)=O)cc1C(=O)NCC1(N2CCCCC2)CCCCC1`, the z-score is -0.667.

`O=C(O)C1CCN(C(=O)c2ccc(Cl)cc2)CC1`: the z-score came out at 0.000989.

On to `CCOC(=O)c1cc2c(C)n(-c3ccc(OCC)cc3)c(C)c2ccc1=O`, for which the z-score worked out at 0.0617.

Regarding `COC(=O)C1=NN(C(C)=O)C2(CC(=O)N(c3cc(C)cc(C)c3)C2=O)C1` (stereo not drawn), the z-score is -0.25.

Take `C=CCOC(=O)CCCC(=O)NC1CCCCC1`: the z-score is -0.153.

Turning to `O=[N+]([O-])c1ccc(N2CCN(CCOc3nonc3-c3ccccc3)CC2)c(Cl)c1`, the z-score was -0.143.

As to `Cc1cc(C)cc(OCCCOc2cccc3cccnc23)c1`, the z-score is -0.197.

The compound `CC1=CC(C)(C)N(C(=O)CSc2nnc(-c3ccccc3)o2)c2ccc(C)cc21` registered a z-score of 0.125.

With `O=C(Nc1ccc(Br)cc1F)c1ccncc1`, the z-score was -0.185.

On to `COc1cc(N(C(=O)Cc2cccs2)C(C(=O)NC2CCCCC2)c2cccc(OC)c2OC)ccc1-n1cnnn1` (stereo not drawn), for which the z-score is -0.302.

In the case of `COc1ccc(S(=O)(=O)N(C)c2ccc(C(=O)NCC3CCCO3)cc2)cc1` (stereo not drawn), the z-score stood at 0.243.

With `CCOC(=O)N1CCN(C(=O)c2cccc(NC(=O)c3ccco3)c2)CC1`, the z-score is -0.473.

Regarding `COc1ccc(CNC(=O)c2noc(C(C)C)c2[N+](=O)[O-])cc1`, the z-score is -0.126.

With `CCOc1ccc(C2CC(=O)n3nc(C45CC6CC(CC(C6)C4)C5)nc3S2)cc1OC` (stereo not drawn), the z-score was -0.36.

For `O=C(CNC(=S)NC(=O)c1ccc(Cl)cc1)c1ccccc1`, the z-score worked out at 1.87.

For `O=c1[nH]nc(Cc2ccc3ccccc3n2)c2ccccc12`, the z-score is -0.226.

`O=C(O)c1ccc2c(c1)[C@@H]1C=CC[C@@H]1[C@H](c1ccccn1)N2`: the z-score is -0.691.

As for `N#Cc1c(NC(=O)COC(=O)C2CC3C=CC2C3)oc(-c2ccccc2)c1-c1ccccc1` (stereo not drawn), the z-score is -0.794.

Compound `CC(C)c1ccc(N2C(=O)CC(Sc3nc4ccccc4o3)C2=O)cc1` (stereo not drawn) had a z-score of 0.142.

For `C=CCNC(=O)c1ccc(C(=O)c2ccccc2)cc1`, the z-score is 0.141.

`O=C(CSc1nnc(-c2cccnc2)n1-c1ccccc1)Nc1ccc2c(c1)OCO2`: the z-score came out at 0.278.

For the compound `Cc1c(C(=O)NCCN2CCOCC2)oc2ccccc12`, the z-score is -0.335.

For `CCCC(C(=O)OCC)P(=O)(c1ccccc1)c1ccccc1` (stereo not drawn), the z-score was -0.0107.

The compound `O=C(NCCN1CCOCC1)c1ccc(Cl)cc1[N+](=O)[O-]` yielded a z-score of 0.289.

On to `CCCCn1nnnc1NCc1ccc(OC)c(OC)c1OC`, for which the z-score was -0.395.

As for `Cc1cccc(-c2noc(CN(C(=O)c3ccc4c(c3)OCO4)C(C)C)n2)c1`, the z-score was -0.23.

Regarding `Nc1nnc(Cc2ccc(Cl)c(Cl)c2)s1`, the z-score was -0.0601.

As to `CNc1cnn(-c2ccc(C)cc2)c(=O)c1Cl`, the z-score was -0.25.

For the compound `c1ccc(CC2CCN(c3nc(N4CCOCC4)nc(N4CCOCC4)n3)CC2)cc1`, the z-score is -0.0645.

On to `CC(SCc1ccccc1)C(=O)N/N=C/c1ccc(OCC(=O)NCc2ccco2)cc1` (stereo not drawn), for which the z-score is -0.532.

Take `Cc1cc(=O)n(C)c(=O)n1CCCCOc1cccc([N+](=O)[O-])c1`: the z-score was -0.0651.

For the compound `Cc1ccc(-c2ccc(CCC(=O)O)n2-c2cccc(O)c2)cc1`, the z-score was -0.426.

The compound `CCNC(=O)c1cc2c(=O)n3cccc(C)c3nc2n(CCc2ccccc2)c1=N` registered a z-score of 0.25.

Regarding `O=C(NCc1cn(-c2ccccc2)nc1-c1ccccc1)c1ccc([N+](=O)[O-])cc1`, the z-score is -0.0499.

With `Nc1c(C(=O)OCC2CCCO2)c2nc3ccccc3nc2n1-c1ccc2c(c1)OCCO2` (stereo not drawn), the z-score was -2.73.

Regarding `O=C(NCc1ccc(Cl)cc1)C1C2C=CC3(CN(Cc4cccnc4)C(=O)C13)O2` (stereo not drawn), the z-score worked out at 0.82.

`CCOC(=O)C1C(=O)CC(C)(O)C(C(=O)OCC)C1c1cccs1` (stereo not drawn) came in with a z-score of 0.0345.

With `O=C1C2C3C=CC([C@@H]2C(=O)N1C1CC1)[C@H]1C(=O)N(C2CC2)C(=O)C31` (stereo partly drawn), the z-score was -0.0443.

For `CN(C(=O)c1ccno1)c1nnc(-c2cccnc2)s1`, the z-score stood at 0.629.

Consider `CC(=O)c1ccc(N2CCN(C(=S)Nc3ccccc3)CC2)cc1`, for which the z-score was -0.0362.

Consider `Cc1ccc(C(=O)NC(=S)NNC(=O)c2ccccc2[N+](=O)[O-])cc1`, for which the z-score came out at 0.414.

For the compound `Cc1cc(Br)ccc1OCCn1ccnc1`, the z-score is -0.0572.

On to `CCOC(=O)C1=C(C)NC2=C(C(=O)CCC2)C1c1cn(Cc2ccc(Cl)cc2Cl)nc1-c1ccccc1` (stereo not drawn), for which the z-score was -0.00364.

For the compound `O=c1c2ccccc2nc(-c2ccoc2)n1CCc1ccccc1`, the z-score was determined as 0.134.

With `COc1ccc(/C=N/NC(=O)c2ccco2)cc1Cn1nc(C)cc1C`, the z-score is -0.327.

`CC(C)c1nc(SCC(=O)Nc2ccc(N3CCOCC3)cc2)c2ccccc2n1`: the z-score turned out to be 0.22.

For the compound `Cc1ccc(C(=O)Nc2nc3ccccc3n3nnnc23)cc1`, the z-score was -0.879.

As for `CCOc1ccc(C(=O)c2nc3c(n2O)CCCCC3)cc1`, the z-score was -0.438.

With `O=C(NCc1ccco1)C(c1ccco1)N(Cc1cccs1)C(=O)Cn1nnc2ccccc21` (stereo not drawn), the z-score was -0.351.

`Cc1cc(C)cc(NC(=O)c2cc(S(=O)(=O)NCc3ccco3)ccc2F)c1` showed a z-score of 0.0645.

For the compound `Cc1sc(N/N=C/c2cccnc2)nc1-c1ccc(Cl)cc1`, the z-score is -0.0424.

Turning to `COCCNC(=O)CSc1nc2ccccc2c(=O)n1CCCC(=O)NCc1ccccc1`, the z-score was -0.969.

`CC(C)Cc1nnc(NC(=O)CCC(=O)NC2CCCc3ccccc32)s1` (stereo not drawn) returned a z-score of 0.13.

In turn, `CCOC(=O)COc1ccc(S(=O)(=O)NCc2ccco2)cc1` returned a z-score of 0.341.

As for `O=C(Nc1ccc(N2CCCC2)cc1)c1ccccc1F`, the z-score is -0.21.

Consider `COc1ccc([N+](=O)[O-])cc1COc1cc(C)cc2oc(=O)cc(-c3ccccc3)c12`, for which the z-score came out at 0.564.

For the compound `CCOC(=O)C1=C(C)N(C)C(=S)NC1c1ccccc1` (stereo not drawn), the z-score is -0.134.

Regarding `COc1ccc(C(=S)N2CCN(C)CC2)cc1Br`, the z-score is -0.395.

The compound `Cc1ccccc1N1C(=O)C(Oc2ccc(Cl)cc2)C1CNC(C)(C)C` (stereo not drawn) came in with a z-score of 0.46.

As for `Cc1cc(C)cc(-n2c(C)cc(/C=N/NC(=O)CSc3ncccn3)c2C)c1`, the z-score is -0.626.

`O=C(Nc1nnc(C2CC2)s1)c1cc(S(=O)(=O)N2CCN(c3ccccc3)CC2)ccc1Cl`: the z-score was -0.252.

On to `CC(C)[C@H](NS(=O)(=O)c1ccc2c(c1)OCCO2)C(=O)OCC(=O)Nc1ccccc1`, for which the z-score is -0.0541.

Turning to `Oc1c(Cl)cc(Cl)cc1C=Nc1ccccc1N1CCCC1`, the z-score was 0.0524.

In the case of `CCn1c(SCC(=O)Nc2nc3ccccc3s2)nc2c(c1=O)SC(C)C2` (stereo not drawn), the z-score was -1.37.

In turn, `COc1ccc(C2C(C(=O)NCCN3CCOCC3)c3ccccc3C(=O)N2C)cc1OC` (stereo not drawn) gave a z-score of 0.256.

`Cc1cccc(NC(=O)c2cc3c([nH]c4ccccc43)c(C)n2)c1C` registered a z-score of 0.0463.

On to `CCOc1ccc2nc(NC(=O)c3ccc(OCC4CCCO4)cc3)sc2c1` (stereo not drawn), for which the z-score came out at 0.152.

Consider `CCCCCC(/C=N/Nc1ccc(S(=O)(=O)N2CCOCC2)cc1[N+](=O)[O-])=C\c1ccccc1`, for which the z-score is -0.0356.

For the compound `O=C(OC1CCCCC1)c1ccc(NC(=O)c2ccco2)cc1`, the z-score was -1.15.

With `CCOc1ccc2nc(NC(=O)CSc3nnnn3C3CCCCC3)sc2c1`, the z-score was -0.0775.

Turning to `COc1ccc(-c2cc(C(=O)NCC(C)C)no2)cc1`, the z-score was -0.536.

For `Cc1ccc(NC2=NCCCCC2)cc1C`, the z-score is -0.0568.

For `Cc1ccccc1-c1cc(C(=O)Nc2nc3c(s2)CCCC3)c2ccccc2n1`, the z-score is -0.133.

In the case of `Cc1cc(C)cc(NC(=O)C(OC(=O)c2sccc2C)c2ccccc2)c1` (stereo not drawn), the z-score is -0.142.

In turn, `CCN(CC)S(=O)(=O)c1ccc(C)c(NC(=S)NNC(=O)C2CC2)c1` returned a z-score of 0.0753.

In the case of `N/C(COc1ccc(Cl)cc1Cl)=N\NS(=O)(=O)c1ccccc1`, the z-score is -0.356.

On to `COc1ccc(N2CCN(C(=N)/C(C(C)=O)=C(\C)O)CC2)cc1`, for which the z-score was 0.87.

For the compound `Cc1ccccc1NC(=O)c1cccc(C(F)(F)F)c1`, the z-score is -0.246.

Take `c1ccc(N2CCN(c3ccccc3)C2c2ccncc2)cc1`: the z-score is -0.689.

(Values after PubChem BioAssay AID488969 (Vanderbilt High Throughput Screening Facility, 2010).)
